Source: ChEMBL document CHEMBL4888484, “Replenishing the malaria drug discovery pipeline: Screening and hit evaluation of the MMV Hit Generation Library 1 (HGL1) against asexual blood stage Plasmodium falciparum ,using a nano luciferase reporter read-out” (2022)
Out of some 150,000 compounds screened, about 540 (0.36%) showed an effect of 50% or more. Some of the results follow.

Each compound was assayed on Plasmodium falciparum (assay: Primary screen in NF54 nanoGlo assay, in single point, at 2uM, 72h; a lower Z score goes with more inhibition). Conditions: timepoint 72 hour.
Assay type: functional, Erythrocyte

Structure (SMILES)	% Inhibition [%]	Z score
COc1cc(C)cc(OC)c1[C@H](C(=O)O)N(C)CCc1cnn(C)c1	-12	2.37
O=C(c1c[nH]cn1)N1CC[C@@]2(CCCN(CC3CCCCC3)C2=O)C1	-4	0.55
CC1CC2CCCCC2N1C(=O)c1ccon1 (centres undefined)	-7	0.89
O=C(c1[nH]nc(C2CC2)c1Cl)N1CCN(S(=O)(=O)c2ccc3ccccc3c2)CC1	-15	2.52
CN(CCCc1nccn1C)C(=O)c1ccc(-c2ccncc2F)cc1	-26	2.8
CC(=O)C(=O)N1CC(=O)N(c2ccccc2-c2ccccc2)C[C@@H]1Cc1ccccc1	-6	0.64
C#CCCC1(CCC(=O)N2CC[C@H](n3cc(Cl)cn3)C2)N=N1	-5	0.71
CC1(C)[C@@H](NS(=O)(=O)c2cccnc2C#N)[C@@H]1c1ccccc1	-8	1.38
COc1ccccc1CN1Cc2cc(NC(=O)CC(C)(C)C)ccc2O[C@@H](C)C1=O	-22	2.1
CN(C[C@H]1CCCN1C)C(=O)c1csc2nc(-c3ccccc3)cn12	0	-0.01
O=C(O)[C@@H]1CCCN1Cc1nn(-c2ccc(F)cc2)c2c1CCC2	-27	2.46
Cc1ccc(-c2noc(CNc3nc(N)nc4c3CCNCC4)n2)cc1	5	-0.66
NC(N)=Nc1nc(C2CCOCC2)cs1	11	-1.37
C[C@H]1CCCCN1C(=O)Cn1c(=O)n(-c2cc(F)cc(F)c2)c(=O)c2sccc21	31	-3.56
Cc1cccnc1[C@H](C)NC(=O)CCCc1cn[nH]c1	7	-0.96
c1ccc(CC2CCN(c3ncnc4c3[nH]c3ccccc34)CC2)cc1	35	-3.95
Cc1ccccc1C(=O)N1[C@H](C(=O)NCc2ccccc2)COC12CCN(C(=O)c1ccc(Cl)cc1)CC2	7	-1.16
CCOc1ccc(NC(=O)C23CCC(C)(C(=O)C2=O)C3(C)C)cc1 (centres undefined)	-19	3.78
CCC(C)C(NC(=O)N1CCC(C)CC1)C(=O)O (centres undefined)	1	-0.09
CCOc1ccc(-c2ccc(=O)n([C@@H](C)C(=O)NCCn3ccnc3C)n2)cc1	27	-3.5
Cc1ccc([C@@H]2Cn3nnc(C(=O)N4CCC(C(=O)NC5CCCCC5)CC4)c3CO2)cc1	-19	1.74
CC(NC(C)C1CN(C(=O)OC(C)(C)C)C1)c1cnn(C)c1 (centres undefined)	-6	0.85
Cc1cccc2nc(N3CC[C@]4(CCNC4)C3)oc12	-7	0.79
COc1cc(-c2n[nH]cc2CN2CCC[C@H]2C(N)=O)cc(OC)c1OC	2	-0.39
CC1(C)c2ccccc2N2CC(=O)N(Cc3cccc4ccccc34)[C@@]21C	-3	0.4
Cc1noc(C)c1S(=O)(=O)N(C)Cc1nnc(-c2ccccc2Br)o1	-8	1.25

Structure (SMILES)	% Inhibition [%]	Z score
O=C(NC[C@H]1COCCO1)C1(c2cc(F)cc(F)c2)CCCC1	2	-0.31
CN1CCN[C@@H](CNC(=O)c2ccc(-c3cc(F)c(F)c(F)c3)cc2)C1	2	-0.37
CNC(=O)NC(=O)[C@H](C)Nc1ccc(C)cc1C	17	-1.98
CN1CCCOc2cccc(c2)[C@@H]2N(C(=O)c3cn(C)cn3)CC[C@]23C(=O)N(CC1=O)c1ccccc13	5	-1.02
CN(Cc1noc(C2CC2)n1)C(=O)[C@H]1CC(=O)N(C)[C@@H]1c1nccn1C	-1	0.16
O=C(O)CC1(NC(=O)c2cc(Oc3ccccc3)ccn2)CCC1	39	-5.28
O=C(Nc1cc(S(=O)(=O)N2CCOCC2)ccc1N1CCCC1)c1cc(O)nc2ccccc12	-2	0.3
Cc1ccc(C2CCCN2S(=O)(=O)CCC2CCCO2)s1 (centres undefined)	-11	1.14
C=C(C)CNc1cc(OC)c(OC)cc1F	-2	0.23
Cc1cc(C(=O)N[C@@H]2COCC[C@@H]2OCC2CCC2)no1	-14	1.26
c1cc2c(cc1CN1CCCCCC1)CNCCO2	-11	2.05
COc1ccc(-c2cnn3c4c(c(C)nc23)CCN4C2CCCC2)cc1OC	-3	0.46
Fc1ccc(-c2cc(C(F)(F)F)nc(-n3ccnc3)n2)cc1	-16	2.43
C[C@@H]1CN(c2cccc(C(F)(F)F)n2)C[C@H](C)N1CCO	-14	1.43
CN(c1ccc(C(C)(C)C)cc1)S(=O)(=O)Cc1ccon1	-10	1.36
CC[C@H](C)NC(=O)Cn1c(C)c(Cc2ccccc2)c(=O)n2nc(-c3ccc(C)cc3)nc12	20	-2.53
Cc1nn(C)c2nc(N3CCCN(C(=O)[C@@H]4CCCO4)CC3)sc12	-9	1.46
Cc1ccc(-c2csc(NC(=O)c3ccc4c(c3)OCCO4)n2)cc1	-9	1.48
Cc1csc(OCC2CCOCC2)n1	0	-0.05
CCCc1nc2nc(C)nn2c(O)c1NC(=O)Nc1cc(OC)cc(OC)c1	-7	1.14
O=C(Cn1cccn1)N[C@@H]1[C@@H]2CCO[C@@H]2[C@@H]1C1CCCC1	-6	1.05
O=C(CCC1CCN(Cc2cccc3c2OCO3)CC1)NCc1cccnc1	-9	0.85
O=C(COc1ccccc1)N1CCCC[C@@H]1CCN1CCCCC1	-13	1.46
CCN(CC)C(=O)C[C@]1(c2ccccc2)CC(=O)N(CC2CCCCC2)C1=O	-19	2.45
c1ccc(CNc2ncc(CN3CCCn4cncc4C3)cn2)cc1	7	-1.17
CCn1ncn2cc(S(=O)(=O)N3CCN(c4cc(C)ccc4C)CC3)cc2c1=O	20	-2.82
